# Laboratory results reported in the supplement of paper PMC12217912.
# The list shows a part of the results. The full chains were built here from the parent and the listed change. Values near 0.05 are background.
# B1: TEV protease; numbered along this chain (parent)
# chain: MGESLFKGPRDYNPISSSICHLTNESDGHTTSLYGIGFGPFIITNKHLFRRNNGTLVVQSLHGVFKVKDTTTLQQHLVDGRDMIIIRMPKDFPPFPQKLKFREPQREERICLVTTNFQTKSMSSMVSDTSCTFPSGDGIFWKHWIQTKDGQCGSPLVSTRDGFIVGIHSASNFTNTNNYFTSVPKNFMELLTNQEAQQWVSGWRLNADSVLWGGHKVFMVKPEEPFQPVKEATQL
# Variants of: B1
# Assay: raw area under fraction-flipped curve 0-4 h after induction (AUC4h, not background-subtracted), DNA-recorder readout of cleavage of the substrate (dimensionless); higher = more cleavage of the substrate by the protease variant
# Details: temperature: 34 °C; time window: 0-4 h after rhamnose induction
# Description: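 In vivo DNA recorder in E. coli TOP10(DE3) ΔrhaA at 34 °C. Each TEVp single-site mutant (parent TEVp 0) is paired with a single-site variant of the 7-mer TEVs (canonical ENLYFQ|S). The substrate sits between flexible linkers in a Bxb1-sfGFP-TEVs-SsrA fusion, so cleavage stabilises Bxb1 and speeds flipping of a recombination array, read by NGS. The value is the raw area under the fraction-flipped curve over 0-4 h after rhamnose induction (AUC4h), with ≥20 reads per time point. It is not background-subtracted; inactive controls average about 0.047.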
# 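Also: Bxb1 expression induced with 0.2% (w/v) L-rhamnose at OD600 near 0.5, cultures sampled hourly, flipped fraction per protease–substrate barcode pair counted by paired-end Illumina sequencing.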
Variant,area with substrate CNLYFQS,area with substrate DNLYFQS,area with substrate GNLYFQS,area with substrate HNLYFQS,area with substrate INLYFQS,area with substrate KNLYFQS,area with substrate LNLYFQS,area with substrate MNLYFQS,area with substrate NNLYFQS,area with substrate PNLYFQS,area with substrate SNLYFQS,area with substrate TNLYFQS,area with substrate WNLYFQS,area with substrate YNLYFQS,area with substrate FNLYFQS,area with substrate QNLYFQS,area with substrate RNLYFQS,area with substrate VNLYFQS
MGESLFKGPRDYNPISSSICFLTNESDGHTTSLYGIGFGPFIITNKHLFRRNNGTLVVQSLHGVFKVKDTTTLQQHLVDGRDMIIIRMPKDFPPFPQKLKFREPQREERICLVTTNFQTKSMSSMVSDTSCTFPSGDGIFWKHWIQTKDGQCGSPLVSTRDGFIVGIHSASNFTNTNNYFTSVPKNFMELLTNQEAQQWVSGWRLNADSVLWGGHKVFMVKPEEPFQPVKEATQL [H21F],0.0699,0.0663,0.0596,0.0619,0.0647,0.0609,0.0572,0.0702,0.0493,0.071,0.0633,0.0678,0.0496,0.0561,,,,
MGESLFKGPRDYNPLSSSICHLTNESDGHTTSLYGIGFGPFIITNKHLFRRNNGTLVVQSLHGVFKVKDTTTLQQHLVDGRDMIIIRMPKDFPPFPQKLKFREPQREERICLVTTNFQTKSMSSMVSDTSCTFPSGDGIFWKHWIQTKDGQCGSPLVSTRDGFIVGIHSASNFTNTNNYFTSVPKNFMELLTNQEAQQWVSGWRLNADSVLWGGHKVFMVKPEEPFQPVKEATQL [I15L],0.0641,0.0807,0.0636,0.068,0.0687,0.0779,0.065,,0.0596,0.0685,0.0632,0.0758,0.0642,0.0613,0.0526,0.0669,0.0622,0.0566
MGESLFKGPRDYNPNSSSICHLTNESDGHTTSLYGIGFGPFIITNKHLFRRNNGTLVVQSLHGVFKVKDTTTLQQHLVDGRDMIIIRMPKDFPPFPQKLKFREPQREERICLVTTNFQTKSMSSMVSDTSCTFPSGDGIFWKHWIQTKDGQCGSPLVSTRDGFIVGIHSASNFTNTNNYFTSVPKNFMELLTNQEAQQWVSGWRLNADSVLWGGHKVFMVKPEEPFQPVKEATQL [I15N],0.0542,0.0616,0.057,0.0562,0.0586,0.0528,,0.0251,,0.0549,0.0586,0.0627,0.0675,0.0484,,0.041,,
MGESLFKGPRDYNPFSSSICHLTNESDGHTTSLYGIGFGPFIITNKHLFRRNNGTLVVQSLHGVFKVKDTTTLQQHLVDGRDMIIIRMPKDFPPFPQKLKFREPQREERICLVTTNFQTKSMSSMVSDTSCTFPSGDGIFWKHWIQTKDGQCGSPLVSTRDGFIVGIHSASNFTNTNNYFTSVPKNFMELLTNQEAQQWVSGWRLNADSVLWGGHKVFMVKPEEPFQPVKEATQL [I15F],0.065,0.0723,0.0746,0.0668,0.0585,0.0604,,0.0718,,0.0652,0.06,0.0566,0.0559,0.072,0.0607,0.0631,0.0497,0.0588
MGESLFKGPRDYNPISGSICHLTNESDGHTTSLYGIGFGPFIITNKHLFRRNNGTLVVQSLHGVFKVKDTTTLQQHLVDGRDMIIIRMPKDFPPFPQKLKFREPQREERICLVTTNFQTKSMSSMVSDTSCTFPSGDGIFWKHWIQTKDGQCGSPLVSTRDGFIVGIHSASNFTNTNNYFTSVPKNFMELLTNQEAQQWVSGWRLNADSVLWGGHKVFMVKPEEPFQPVKEATQL [S17G],0.0602,0.0716,0.0948,0.0651,0.07,0.0724,0.0618,0.0789,0.0648,0.0655,0.0714,0.0676,0.0597,0.0631,0.072,,,0.0714
MGESLFKGPRDYNPISCSICHLTNESDGHTTSLYGIGFGPFIITNKHLFRRNNGTLVVQSLHGVFKVKDTTTLQQHLVDGRDMIIIRMPKDFPPFPQKLKFREPQREERICLVTTNFQTKSMSSMVSDTSCTFPSGDGIFWKHWIQTKDGQCGSPLVSTRDGFIVGIHSASNFTNTNNYFTSVPKNFMELLTNQEAQQWVSGWRLNADSVLWGGHKVFMVKPEEPFQPVKEATQL [S17C],0.0663,0.0795,0.075,0.0512,0.0552,0.0686,0.0685,0.0618,,0.0721,0.0501,0.064,0.0643,0.0715,0.0521,,,
MGESLFKGPRDQNPISSSICHLTNESDGHTTSLYGIGFGPFIITNKHLFRRNNGTLVVQSLHGVFKVKDTTTLQQHLVDGRDMIIIRMPKDFPPFPQKLKFREPQREERICLVTTNFQTKSMSSMVSDTSCTFPSGDGIFWKHWIQTKDGQCGSPLVSTRDGFIVGIHSASNFTNTNNYFTSVPKNFMELLTNQEAQQWVSGWRLNADSVLWGGHKVFMVKPEEPFQPVKEATQL [Y12Q],0.0677,0.103,0.076,0.0594,,0.0744,0.0722,0.0682,0.0748,0.0671,0.0704,,0.058,0.0619,0.0596,,,
MGESLFKGPRDYNPIKSSICHLTNESDGHTTSLYGIGFGPFIITNKHLFRRNNGTLVVQSLHGVFKVKDTTTLQQHLVDGRDMIIIRMPKDFPPFPQKLKFREPQREERICLVTTNFQTKSMSSMVSDTSCTFPSGDGIFWKHWIQTKDGQCGSPLVSTRDGFIVGIHSASNFTNTNNYFTSVPKNFMELLTNQEAQQWVSGWRLNADSVLWGGHKVFMVKPEEPFQPVKEATQL [S16K],0.0622,0.0607,0.0785,0.0698,0.0895,0.0641,0.0552,,0.0676,0.0579,0.0602,0.0628,0.0728,0.063,0.0717,,0.067,0.0592
MGESLFKGPRDYNPIFSSICHLTNESDGHTTSLYGIGFGPFIITNKHLFRRNNGTLVVQSLHGVFKVKDTTTLQQHLVDGRDMIIIRMPKDFPPFPQKLKFREPQREERICLVTTNFQTKSMSSMVSDTSCTFPSGDGIFWKHWIQTKDGQCGSPLVSTRDGFIVGIHSASNFTNTNNYFTSVPKNFMELLTNQEAQQWVSGWRLNADSVLWGGHKVFMVKPEEPFQPVKEATQL [S16F],0.0692,0.0633,0.0938,0.0578,,0.0722,,,,0.0651,,0.0677,0.0625,0.0597,0.0572,0.0538,0.0835,0.0626
